Measurements: PubChem BioAssay AID504332 (National Center for Advancing Translational Sciences (NCATS), 2011)
The campaign covered roughly 350,000 compounds. About 31,000 (8.9%) were called active. Inconclusive means that the source gave no clear call. Such entries were picked first, then a sample of the others. Calls follow the shape of the dose curve; as a rule, active = well fitted inhibition curve with a large enough effect; inconclusive = small, poorly fitted or top-dose-only effect; inactive = no such curve, though single readings can be large or run the other way. Potencies beside an inconclusive call are fits to weak or partial responses and may not hold up.

target: Histone-lysine N-methyltransferase EHMT2 (Homo sapiens) (UniProt Q96KQ7); test: qHTS Assay for Inhibitors of Histone Lysine Methyltransferase G9a; settings: G9a H3K9 monomethylation, AlphaScreen, 2 h; series mostly up to 59 µM; also: nearly all actives have a fitted effect of over 75% in size
Outline: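 Compounds were preincubated with 20 nM G9a for 15 min, after which biotinylated H3K9 peptide (500 nM) and SAM (20 uM) started a 2 h room-temperature reaction. Monomethylated product was quantified by antibody-based AlphaScreen chemiluminescence.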
Potency is read from the fitted curve at half-maximal effect; tags tell the direction and shape of the fitted curve.

Sequence of UniProt Q96KQ7 (Q96KQ7 whole entry, looked up): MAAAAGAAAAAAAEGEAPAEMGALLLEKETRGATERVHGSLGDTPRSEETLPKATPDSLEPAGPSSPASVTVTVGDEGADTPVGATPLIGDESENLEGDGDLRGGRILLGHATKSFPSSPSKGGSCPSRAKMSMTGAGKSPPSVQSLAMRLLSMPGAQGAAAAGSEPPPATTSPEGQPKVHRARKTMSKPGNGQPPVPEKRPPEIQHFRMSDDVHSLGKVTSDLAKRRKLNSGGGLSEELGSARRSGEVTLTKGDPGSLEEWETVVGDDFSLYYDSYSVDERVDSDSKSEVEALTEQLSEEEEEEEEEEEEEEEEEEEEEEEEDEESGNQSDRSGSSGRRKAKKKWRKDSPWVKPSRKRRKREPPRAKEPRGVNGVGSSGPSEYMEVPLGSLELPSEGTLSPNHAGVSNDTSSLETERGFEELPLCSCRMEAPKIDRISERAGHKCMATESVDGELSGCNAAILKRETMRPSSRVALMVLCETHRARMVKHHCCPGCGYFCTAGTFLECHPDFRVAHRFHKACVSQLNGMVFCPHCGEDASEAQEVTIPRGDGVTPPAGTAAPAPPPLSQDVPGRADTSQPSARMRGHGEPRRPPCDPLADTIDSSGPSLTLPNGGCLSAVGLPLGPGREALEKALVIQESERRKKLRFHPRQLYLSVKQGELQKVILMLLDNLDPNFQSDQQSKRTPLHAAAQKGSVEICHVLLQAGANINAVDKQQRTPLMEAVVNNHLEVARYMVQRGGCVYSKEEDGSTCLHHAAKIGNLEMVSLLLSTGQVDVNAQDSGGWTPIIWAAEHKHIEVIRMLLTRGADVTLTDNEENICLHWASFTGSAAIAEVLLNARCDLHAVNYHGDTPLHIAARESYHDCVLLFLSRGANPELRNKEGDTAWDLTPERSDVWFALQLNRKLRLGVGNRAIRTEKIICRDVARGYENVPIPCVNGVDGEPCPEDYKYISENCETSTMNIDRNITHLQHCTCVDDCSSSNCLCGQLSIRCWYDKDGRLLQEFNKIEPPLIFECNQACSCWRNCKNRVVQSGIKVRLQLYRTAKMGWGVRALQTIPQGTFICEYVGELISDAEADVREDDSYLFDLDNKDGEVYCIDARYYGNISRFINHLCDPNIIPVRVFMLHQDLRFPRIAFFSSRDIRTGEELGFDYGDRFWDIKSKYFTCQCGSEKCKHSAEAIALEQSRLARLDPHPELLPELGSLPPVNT

Q: How did the Potency turn out when `NNC(=O)c1cc(S(=O)(=O)N2CCOCC2)c[nH]1` was run?
A: The Potency was “inactive”.

Q: With `COc1ccccc1C(=O)N(CCN(C)C)c1nc2cc(C)cc(C)c2s1` as the compound, how does the Potency read?
A: Its Potency is inconclusive: 2.51 µM [inhibitor, full curve, poor fit].

Q: `Cc1ccc(-n2ncc(C(=O)NCCc3ccccc3)c2C2CCN(C(=O)OC(C)(C)C)CC2)c(C)c1` was tested. Which Potency did it give?
A: Its Potency is “inactive”.

Q: For `COC(=O)c1ccc(CN2CCc3ccc(NC(=O)c4ccncc4)cc3C2)cc1`, which Potency is on record?
A: The Potency was active: 50.1 µM.

Q: `Cc1ccc2c(=O)cc(C(=O)Nc3ccc(S(=O)(=O)N4CCC(C)CC4)cc3)oc2c1C` was tested. Which Potency did it give?
A: The Potency was “inactive”.

Q: Which Potency does the source give for `O=[N+]([O-])c1ccccc1NCCOc1ccccc1` here?
A: Its Potency is inconclusive: 25.1 µM [inhibitor, single point].

Q: With `Cc1ccc(CN2CCN(Cc3ccccc3C(F)(F)F)CC2)cc1` as the compound, how does the Potency read?
A: The Potency was active: 2 µM.

Q: With `O=C(OCc1ccc([N+](=O)[O-])cc1)c1cc(S(=O)(=O)N2CCCCC2)ccc1N1CCOCC1` as the compound, how does the Potency read?
A: Its Potency is inconclusive: 39.8 µM [inhibitor, partial curve, poor fit].

Q: Which Potency does the source give for `CCOC(=O)C1(c2nc(N)cs2)COC(=O)C1` (stereo unspecified) here?
A: The Potency was inconclusive: 31.6 µM [inhibitor, single point].

Q: How did the Potency turn out when `Cc1ccc(S(=O)(=O)N(C)c2ccc(C(=O)O)cc2)cc1` was run?
A: Its Potency is inconclusive: 79.4 µM [inhibitor, partial curve, poor fit].

Q: For `CCN1CCN(c2cc3c(nn2)Oc2ccccc2N3C)CC1`, which Potency is on record?
A: The Potency was active: 50.1 µM.

Q: Which Potency does the source give for `N/C(=N\OC(=O)c1ccc2ccccc2c1)c1ccccn1` here?
A: Its Potency is “inactive”.

Q: `COc1ccc(O)c(CN2CCCC(N3CCN(c4ccc(F)cc4)CC3)C2)c1` (stereo unspecified) was tested. Which Potency did it give?
A: Its Potency is inconclusive: 89.1 µM [inhibitor, single point].

Q: `Cc1cc(C)c2c(N)c3cccc(C)c3nc2n1` was tested. Which Potency did it give?
A: Its Potency is inconclusive: 89.1 µM [inhibitor, single point].

Q: How did the Potency turn out when `CCCCS(=O)(=O)c1sc2nc(C)cc(C)c2c1N` was run?
A: The Potency was inconclusive: 6.31 µM [inhibitor, single point].

Q: `COc1ccc(-c2nc3ccccc3n3c(-c4cccc(C)c4)c4c(=O)n(C)c(=O)n(C)c4c23)cc1` was tested. Which Potency did it give?
A: The Potency was “inactive”.

Q: With `Cc1oc(-c2cccc3ccccc23)nc1CN1CCC[C@H]1CO` as the compound, how does the Potency read?
A: Its Potency is inconclusive: 11.2 µM [inhibitor, partial curve, poor fit].

Q: For `CSc1nc(=O)c2c(n1C)NC(=O)CC2c1ccccc1OC(C)C` (stereo unspecified), which Potency is on record?
A: The Potency was “inactive”.

Q: For `O=C(CSc1ccc(F)cc1)N1CCC(c2nc3ccccc3s2)CC1`, which Potency is on record?
A: Its Potency is inconclusive: 3.55 µM [inhibitor, partial curve, poor fit].

Q: Which Potency does the source give for `CCN1C(=O)/C(=C/C=C2/SCCN2C)SC1=S` here?
A: The Potency was active: 8.91 µM.

Q: How did the Potency turn out when `CCOC(=O)C1CCCN(c2c(NCCCN(CC)c3cccc(C)c3)c(=O)c2=O)C1` (stereo unspecified) was run?
A: Its Potency is inconclusive: 39.8 µM [inhibitor, partial curve, poor fit].
